Source: PubChem BioAssay AID900 (National Center for Advancing Translational Sciences (NCATS), 2007)
The campaign covered roughly 75,000 compounds. About 20 (0.03%) were called active. The shares of active, inactive and inconclusive entries below differ from those in the screen. The call rests on the fitted dose curve; in most records, active means well fitted inhibition curve with a large enough effect; inconclusive means small, poorly fitted or top-dose-only effect; inactive means flat fitted curve, though single readings scatter. Potencies of inconclusive entries are left out as doubtful fits.

molecular target: Caspase-1 (Homo sapiens) (UniProt P29466); assay: qHTS Assay for Allosteric/Competitive Inhibitors of Caspase-1; conditions: Caspase-1 enzyme, Ac-WEHD-AFC fluorogenic rate; activity change, negative = inhibition: at 57.5 µM (top of the series) unless noted;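 on activity change, negative = inhibition: plate controls were vehicle for no effect and no substrate for full effect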
Potency means the concentration at half of the fitted maximal effect; tags describe the fitted curve by direction and shape or compound fluorescence and quenching.

Compound | activity change, negative = inhibition | Potency
Nc1ncnc2c1ncn2C[C@@H](O)C(=O)O | inactive: -2.12% [at 11.5 µM] | 
COc1ccc(-c2nc3cncnc3n(-c3ccccc3)c2=O)cc1 |  | inconclusive [inhibitor, partial curve]
CC(C)(C)c1cc(C(c2cccnc2)N2CCN(CCO)CC2)cc(C(C)(C)C)c1O (stereo unspecified) |  | inactive
c1ccc2c(c1)CCCN2Cc1nnnn1CC1CCCO1 (stereo unspecified) |  | inconclusive [inhibitor, partial curve]
COc1ccc(-c2cc(C(F)(F)F)n3nc(C(=O)O)nc3n2)cc1 |  | inconclusive [inhibitor, partial curve]
CCCCNC(=O)CSc1nc2ccc(N3CCOCC3)cc2c(=O)n1CCc1ccccc1 |  | inconclusive [inhibitor, partial curve]
COc1ccc(Nc2ncc3c(n2)CC(c2ccc(OC)cc2)CC3=O)cc1 (stereo unspecified) |  | inconclusive [fluorescent, partial curve]
CCCCCCOC(=O)C(C#N)c1nc2ccccc2nc1N1CCOCC1 (stereo unspecified) |  | inconclusive [inhibitor, partial curve]
CCOC(=O)c1ccc(Oc2nc(SC)nc(N(C)C)n2)cc1 |  | inactive
Nc1nc2ccc(Cl)cc2c2nc(-c3ccco3)nn12 |  | inactive
O=C1/C(=C/Nc2ccc3c(c2)OCO3)CCc2ccccc21 |  | inconclusive [inhibitor, partial curve]
CCCCn1c(-c2ccsc2)nc2c1c(=O)[nH]c(=O)n2CCC |  | inconclusive [inhibitor, single point]
CCc1ccc(NC(=O)c2noc3c2CCCCC3)cc1 |  | inactive
Cc1ccc(-c2nnc(N3CCN(C(=O)CN4C(=O)c5ccccc5C4=O)CC3)c3ccccc23)cc1 |  | inconclusive [inhibitor, partial curve]
COc1ccc(S(=O)(=O)C(C#N)c2nc3ccccc3nc2N2CCC(C)CC2)cc1 (stereo unspecified) |  | inconclusive [inhibitor, full curve]
O=C1C2CC=C(Cl)CC2C(=O)N1CN(Cc1ccco1)CN1C(=O)C2CC=C(Cl)CC2C1=O (stereo unspecified) |  | inconclusive [inhibitor, partial curve]
CC1(C)Cc2c(C#N)c(NC3CCCCC3)nc(-c3ccco3)c2CO1 |  | inconclusive [inhibitor, partial curve]
COc1ccc(N2CSC3=C(C#N)C(c4ccc(OC)c(OC)c4)CC(=O)N3C2)c(OC)c1 (stereo unspecified) |  | inconclusive [inhibitor, partial curve]
Cn1c(=O)[nH]c(=O)c2c1nc(SCC(O)CO)n2Cc1ccccc1Cl (stereo unspecified) |  | inconclusive [inhibitor, full curve]
COc1ccc(Oc2ncc3nc(C)c(=O)n(Cc4cccc(OC)c4)c3n2)cc1 |  | inactive
COc1cccc(NC(=O)Cn2c(SCC(=O)N3CCOCC3)nc3ccccc32)c1 |  | inactive
Cc1cc(C)c2cc(CN(Cc3ccc4c(c3)OCO4)Cc3nnnn3Cc3ccco3)c(=O)[nH]c2c1 | inconclusive: -17.4% [inhibitor] | 

Compound | activity change, negative = inhibition | Potency
Nc1c(S(=O)(=O)c2cccc(Cl)c2)c2nc3ccccc3nc2n1/N=C/c1ccc(O)c(O)c1 |  | inactive
CC(=O)c1ccc2c3c(ccc(O)c13)CC2 |  | inactive
Cc1nc2cnc(N3CCN(C)CC3)nc2n(CCc2ccccc2)c1=O |  | inactive
CCOCCCn1c(=N)c(C(=O)NCc2ccc3c(c2)OCO3)cc2c(=O)n3cccc(C)c3nc21 |  | inconclusive [fluorescent]
CCOC(=O)c1c(NC(=O)c2ccc(-n3cnnn3)cc2)sc2c1CCCC2 |  | inconclusive [inhibitor, full curve]
CC(=O)Nc1cc2c(cc1C(=O)c1ccccc1)OCCO2 |  | inconclusive [inhibitor, single point]
COc1cc(NC(=O)CC(C)C)ccc1NC(=O)c1ccco1 |  | inactive
CC(=O)N1CCC2(CC1)CC(=O)c1cc(OCC(=O)NCc3ccco3)ccc1O2 |  | inconclusive [inhibitor, single point]
CCOc1cccc(C2C(C(=O)c3ccc(C)o3)=C(O)C(=O)N2c2nccs2)c1 (stereo unspecified) |  | inconclusive [inhibitor, partial curve]
c1ccc(-c2nc3ccccc3nc2N2CCOCC2)cc1 |  | inconclusive [inhibitor, single point]
c1ccc(C(c2nnnn2C2CCCCC2)N2CCc3ccccc3C2)nc1 (stereo unspecified) |  | inconclusive [inhibitor, single point]
COc1ccc(C2C(C(=O)NCCN(C)C)c3ccccc3C(=O)N2C)cc1OC (stereo unspecified) |  | inconclusive [inhibitor, single point]
COC(=O)[C@H](CCSC)NC(=O)NCc1ccc(S(N)(=O)=O)cc1 |  | inconclusive [inhibitor, single point]
COc1ccc(-c2cn3c(C)c(C(=O)Nc4cc(NC(C)=O)ccc4OC)sc3n2)cc1 |  | inconclusive [inhibitor, partial curve]
Cc1nc(C)c(C(=O)C2=C(O)C(=O)N(CCN3CCOCC3)C2c2ccco2)s1 (stereo unspecified) |  | inconclusive [inhibitor, partial curve]
CCC(C(=O)NC1CCCC1)N(Cc1ccc2c(c1)OCO2)C(=O)c1snc(C(N)=O)c1N (stereo unspecified) |  | inconclusive [inhibitor, partial curve]
CN1CCC[C@@H]1c1cccnc1.O=C(O)c1ccccc1O.O=C([OH2+])c1ccccc1O.O=C([OH2+])c1ccccc1O.[Mn] | inactive: 2.73% [at 11.5 µM] | 
Cc1cc2nn(-c3cccc4ccccc34)nc2cc1N |  | inconclusive [inhibitor, full curve]
O=C(O)[C@H](Cc1ccccc1)N1Cc2ccccc2C1=O |  | inactive
N#Cc1cccc(-c2nc3cnc(Nc4ccccc4)nc3n(C[C@H]3CCCO3)c2=O)c1 |  | inconclusive [inhibitor, partial curve]
Cc1oc(C)c2c(=O)ccc3c(c12)OC(N)=C(C#N)C3c1ccccc1 (stereo unspecified) |  | inconclusive [inhibitor, single point]
O=C(Nc1ccccc1)c1ccc2nc(-c3ccco3)c(-c3ccco3)nc2c1 |  | inconclusive [inhibitor, partial curve]

Compound | activity change, negative = inhibition | Potency
Cc1cc2cc3c(cc2nc1SCC(=O)N1CCN(C(=O)c2ccco2)CC1)OCO3 |  | inactive
CCOC(=O)c1c(C)n(O)c2ccc(Cl)cc2c1=O |  | inconclusive [inhibitor, partial curve]
CCOC(=O)c1cc(C#N)c(SCC(=O)c2cc(C#N)c(SC)nc2C)[nH]c1=O |  | inconclusive [inhibitor, partial curve]
COc1ccc(C2=CC(c3ccc(F)cc3)n3nnnc3N2)cc1 (stereo unspecified) |  | inconclusive [inhibitor, single point]
COc1cc2c(cc1NC(=O)c1cncc(Br)c1)oc1ccccc12 |  | inconclusive [inhibitor, partial curve]
Oc1cc(CN2COc3ccccc32)c(O)cc1CNC1CCCCC1 | inactive: -10.1% [at 11.5 µM] | 
COCCn1c(=O)c(C)nc2cnc(N3CCNCC3)nc21 |  | inconclusive [inhibitor, partial curve]
O=C(O)c1ccc(Cl)c2c1C1C=CCC1C(c1ccccn1)N2 (stereo unspecified) |  | inconclusive [inhibitor, single point]
O=C1C2C3CCCC3=C3CCCC3C2C(=O)N1c1ccc(F)cc1 (stereo unspecified) | inconclusive: -17.5% [inhibitor] | 
CCCCn1c(SCC(=O)NCc2ccccc2)nc2ccc(N3CCOCC3)cc2c1=O |  | inconclusive [inhibitor, partial curve]
COc1ccc(C(C#N)(CCC#N)CCC#N)cc1OC |  | inconclusive [inhibitor, partial curve]
CCOC(=O)c1nn(-c2ccccc2)c(=O)c2c(N)scc12 |  | inconclusive [inhibitor, single point]
CCOC(=O)c1c(NC(=O)CSc2nnc(C)s2)sc2c1CCN(C)C2 |  | inconclusive [inhibitor, partial curve]
CC12C=C(/C=C/CCc3ccco3)C(C)(C1)C(CCc1ccco1)CC2=O (stereo unspecified) |  | inconclusive [inhibitor, single point]
CCOC(=O)CCN1C(=O)[C@@H]2[C@H]3C(=CC[C@H]2C1=O)C(=O)[C@H]1O[C@H]1[C@H]3O |  | inconclusive [inhibitor, partial curve]
O=C1CSC(c2cn(-c3ccccc3)nc2-c2cc3ccccc3oc2=O)N1Cc1ccco1 (stereo unspecified) | inconclusive: -15.1% [inhibitor] | 
Oc1c(CN2CCN(c3ccccn3)CC2)cc(Cl)c2cccnc12 |  | inactive
COc1ccc(Oc2ncc3nc(-c4ccc(OC)cc4)c(=O)n(CCC#N)c3n2)cc1 |  | inconclusive [fluorescent, partial curve]
Cc1cc(C(=O)Cn2nnc3ccccc3c2=O)c(C)n1Cc1cccs1 |  | inactive
CC(C)(C)n1nnnc1C(c1cccs1)N(Cc1ccccc1)Cc1cccnc1 (stereo unspecified) |  | inactive
COc1cc2c(Cc3c4c5c(cc(OC)c(OC)c5c5c(OC)c(OC)ccc35)CCN4C)c3c4c(cc(OC)c(OC)c4c2cc1OC)CCN3C |  | inconclusive [inhibitor, full curve]
CCn1c(SCC(N)=O)nc2c(c1=O)C1(CCCC1)Cc1ccccc1-2 |  | inactive
